About 14,000 (4.5%) of roughly 310,000 compounds showed an effect of 50% or more. The effect is printed as a negative number. This is one part of the list.
These compounds were tested against human ether-à-go-go-related gene (hERG) potassium channel (human, UniProt Q12809) (assay: primary screen, population patch clamp on CHO cells stably expressing hERG).
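Note: peak tail current of the secondary pulse compared with the same well before compound.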

Sequence of human ether-à-go-go-related gene (hERG) potassium channel (Q12809 whole entry, looked up): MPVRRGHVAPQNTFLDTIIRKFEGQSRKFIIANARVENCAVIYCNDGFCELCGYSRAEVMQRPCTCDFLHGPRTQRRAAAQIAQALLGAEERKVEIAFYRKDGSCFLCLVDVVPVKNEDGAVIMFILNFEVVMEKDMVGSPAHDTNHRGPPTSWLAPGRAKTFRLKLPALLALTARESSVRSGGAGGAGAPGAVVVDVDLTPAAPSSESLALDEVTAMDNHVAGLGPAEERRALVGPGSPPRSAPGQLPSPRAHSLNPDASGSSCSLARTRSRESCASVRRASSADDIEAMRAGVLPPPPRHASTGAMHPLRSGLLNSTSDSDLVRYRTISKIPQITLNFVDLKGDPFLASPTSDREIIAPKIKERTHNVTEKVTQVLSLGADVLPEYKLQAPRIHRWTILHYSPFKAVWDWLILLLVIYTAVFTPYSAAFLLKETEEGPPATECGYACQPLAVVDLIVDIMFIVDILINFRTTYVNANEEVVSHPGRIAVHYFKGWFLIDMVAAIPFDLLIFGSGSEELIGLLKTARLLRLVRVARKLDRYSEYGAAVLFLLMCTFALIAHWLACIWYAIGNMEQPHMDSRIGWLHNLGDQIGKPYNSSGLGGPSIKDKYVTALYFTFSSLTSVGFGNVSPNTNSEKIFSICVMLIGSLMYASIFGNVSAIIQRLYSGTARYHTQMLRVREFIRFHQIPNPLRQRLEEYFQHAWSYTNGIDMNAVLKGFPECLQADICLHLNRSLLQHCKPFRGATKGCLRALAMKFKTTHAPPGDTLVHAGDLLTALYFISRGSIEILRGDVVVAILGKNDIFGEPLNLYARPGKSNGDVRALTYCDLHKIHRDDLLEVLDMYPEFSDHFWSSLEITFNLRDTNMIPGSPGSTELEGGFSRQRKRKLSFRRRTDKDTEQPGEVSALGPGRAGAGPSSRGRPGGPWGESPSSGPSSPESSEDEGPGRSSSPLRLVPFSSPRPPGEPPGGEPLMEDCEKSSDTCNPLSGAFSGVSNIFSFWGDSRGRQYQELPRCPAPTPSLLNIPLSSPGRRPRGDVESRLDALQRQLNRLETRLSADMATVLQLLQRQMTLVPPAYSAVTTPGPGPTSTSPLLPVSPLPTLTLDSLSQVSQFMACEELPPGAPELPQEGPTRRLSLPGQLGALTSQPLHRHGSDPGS

Row | Structure (SMILES) | hERG current change (%, negative = inhibition) at 10uM [%]
1 | O=C(O)c1ccc(NCc2cccs2)cc1 | 3.22
2 | COc1ccc(CN2CCc3ccccc3C2)c(OC)c1 | -28.4
3 | O=C(O)CCC(=O)Nc1cccc(C(=O)Nc2ccc(Br)cc2)c1 | 7.43
4 | CCN(CC)CCCNc1nnc(C)c(=O)[nH]1 | 2.82
5 | COc1ccc(Cl)cc1NC(=O)CCc1nnc2ccc(N3CCN(C)CC3)nn12 | 3.16
6 | CCc1c(C)sc(NC(=O)C2CCCO2)c1C#N (stereo not drawn) | -3.74
7 | CC(C)C(=O)Nc1nnc(Sc2ccc(N(C)C)cc2)s1 | 16.4
8 | COc1cc(OC)c(OC)cc1NC(=O)CC1COc2ccccc2O1 (stereo not drawn) | -6.05
9 | O=C(CCCN1C(=O)c2ccccc2C1=O)NCc1ccc(F)cc1 | -21.2
10 | CCn1c(SCC(=O)Nc2nccs2)nnc1-c1ccco1 | -10.7
11 | COc1ccc(NC(=O)C2CCCN(S(=O)(=O)c3cccc4nonc34)C2)cc1 (stereo not drawn) | 34.7
12 | CC(=O)Nc1nc2c(C)cc(NC(=O)C3CCCCC3)cc2s1 | 3.53
13 | Cc1ccc(NC(=O)Cn2ccnc2)cc1C | -0.47
14 | COc1ccc(C[C@H](N)C(=O)N[C@H]2[C@@H](O)[C@H](n3cnc4c(N(C)C)ncnc43)O[C@@H]2CO)cc1.Cl | -5.25
15 | CCCCOCCCNS(=O)(=O)Cc1ccccc1 | -14.5
16 | COc1ccc(CNC(=O)C(C)OC(=O)CCN2C(=O)C3CC=CCC3C2=O)cc1 (stereo not drawn) | -10.6
17 | Cc1ccccc1C1CC(c2ccc(F)cc2)Nc2nc(N)nn21 (stereo not drawn) | -27.2
18 | Cc1cccc(C(=O)OC(C)CN2CCCC2)c1.Cl (stereo not drawn) | 10.5
19 | Cc1nc2sc3c(c2c(=O)o1)CCCC3 | -7.03
20 | O=C(NC(=S)NNS(=O)(=O)c1ccccc1)c1cccnc1 | 28.1
21 | COc1cccc(CNC(=S)NC2CC2)c1 | 24.9
22 | CCOC(=O)Cc1csc(NC(=O)/C=C/c2ccccc2Cl)n1 | 2.82
23 | Cc1onc(-c2ccccc2)c1CNC(=O)C1COc2ccccc2O1 (stereo not drawn) | -23

Row | Structure (SMILES) | hERG current change (%, negative = inhibition) at 10uM [%]
24 | O=C(Cn1cnc2cc([N+](=O)[O-])ccc2c1=O)NCc1ccccc1 | -8.19
25 | CCOC(=O)C(NC(C)=O)(NC(C)C)C(F)(F)F (stereo not drawn) | 16.5
26 | CCOC(=O)N1CCC(N2CCCC(C(=O)c3cc(C)c(OC)c(C)c3)C2)CC1 (stereo not drawn) | -57.3
27 | COc1ccc(C)cc1NC(=O)C1COc2ccccc2O1 (stereo not drawn) | 14.9
28 | CC(C)C(=O)Nc1ccc(N2CCN(c3ccc(F)cc3)CC2)cc1 | 16.1
29 | CSCC[C@H](NC(=O)N1CCn2c1nc1ccccc12)C(=O)N[C@@H](C(=O)O)c1ccccc1 | 4.3
30 | COc1cccc(C2=NOC(C(=O)Nc3ccc(C(C)=O)cc3)C2)c1 (stereo not drawn) | -25.2
31 | CC1CC(C)CN(CC(=O)N2CCOCC2)C1.Cl (stereo not drawn) | 0.0259
32 | COC(=O)c1ccc(C(=O)N(C)C2CCCN(Cc3ccccc3F)C2)cc1 (stereo not drawn) | -2.39
33 | CC(C(=O)OCC(=O)Nc1ccc(S(=O)(=O)N2CCCCC2)cc1)N1C(=O)c2ccccc2C1=O (stereo not drawn) | -16.4
34 | Cc1ccc(NC(=O)c2cccc(S(=O)(=O)N(C)c3ccccc3)c2)cc1S(=O)(=O)N1CCOCC1 | 9.04
35 | Cc1ccc(NC(=O)COC(=O)C2CC2)c(Br)c1 | 8.63
36 | Cn1c(=O)c2c(nc(CN3CCC(C(N)=O)CC3)n2Cc2ccccc2Cl)n(C)c1=O | 1.84
37 | Cc1ccc(C2N(c3nccs3)C(=O)C3CCCN32)cc1 (stereo not drawn) | -4.54
38 | O=C(Nc1ccc2nc(-c3ccccc3)[nH]c2c1)c1cccs1 | -23.9
39 | COC(=O)CCN(C(=O)c1cccc(OC(C)=O)c1)c1ccccn1 | 4.73
40 | O=S(=O)(NC1CCSc2ccccc21)c1ccc(Cl)nc1 (stereo not drawn) | -18.1
41 | COc1ccc2c(C)cc3n[nH]c(=S)n3c2c1 | 12.9
42 | CC1/C(=N/O)CC(c2ccccc2)N(C)C1c1ccccc1 (stereo not drawn) | 14.3
43 | CNC(=S)NNC(=O)Cn1ccc(C)n1 | 1.51
44 | Cc1ccc(Nc2nc3c([nH]2)c(=O)n(C)c(=O)n3C)cc1 | -10.1
45 | COc1cccc(NC(=O)c2cccc(OC)c2OC)c1 | -0.56
46 | CCOCCCNC(=O)c1ccc(N(C)S(=O)(=O)c2ccc(OC)cc2)cc1 | 8.62

Row | Structure (SMILES) | hERG current change (%, negative = inhibition) at 10uM [%]
47 | O=C(O)Cc1ccc(-c2ccccc2-c2ccccc2)cc1 | 6.8
48 | CC(C)N(C(=O)COC(=O)CNC(=O)c1ccc(Br)cc1)c1ccccc1 | -15.5
49 | CNS(=O)(=O)c1cc2c3c(cccc3c1)C(=O)NC2=O | 11.9
50 | COc1ccc(C(=O)n2c(SC)nc3cc4c(cc32)OCCO4)cc1 | 12
51 | Oc1c(Cl)cc(Cl)cc1/C=N/c1nccs1 | -11.8
52 | O=C(/C=C/c1ccccc1)OCCN1C(=O)c2ccccc2C1=O | 13.4
53 | COc1ccccc1CNC(=O)C(=O)NCC1OCCN1S(=O)(=O)c1ccc(Br)cc1 (stereo not drawn) | -2.19
54 | COc1cccc(/C=C2\SC(=O)N(CCC(=O)N3CCCCC3CCO)C2=O)c1 (stereo not drawn) | -14.6
55 | CN(C)c1ccc(/C=N/NC(=O)CNC(=O)/C=C/c2ccccc2)cc1 | 5.26
56 | C1=CC2=NC34CCCCC3CC3=C(CCCC3)N4C2=CC1=NC1CCCCC1 (stereo not drawn) | -18.9
57 | O=C(Cn1nc(-c2ccc(Cl)cc2)c2ccccc2c1=O)NCC1CCCO1 (stereo not drawn) | 5.51
58 | CCS(=O)(=O)NCCNc1ccc([N+](=O)[O-])cc1 | -38.2
59 | O=C(O)COc1ccc(Cl)cc1CO | -0.991
60 | COc1ccc(Cl)cc1NC(=O)Cn1nnc(C(=O)NCCc2ccc(OC)c(OC)c2)c1N | 15
61 | CCOc1ccc(N(CC(=O)Nc2ccccc2OC)S(=O)(=O)c2ccccc2)cc1 | 6.69
62 | Cc1ccc(OC(=O)CCS(=O)(=O)c2ccc(C)cc2)cc1 | -24.4
63 | Cc1cc2c(c(=O)o1)C(Cc1ccccc1)C(C#N)=C(N)O2 (stereo not drawn) | 14
64 | CCOC(=O)c1cc(-c2csc(COc3ccccc3)n2)on1 | 3.35
65 | CCOC(=O)Nc1sc2c(c1C(N)=O)CCC(C)C2 (stereo not drawn) | 16.4
66 | COc1ccccc1CCNCc1ccc(OC)c(OC)c1OC.O=C(O)C(=O)O | 15.5
67 | Cc1c(NC(=O)C(C)Oc2ccccc2F)c(=O)n(-c2ccccc2)n1C (stereo not drawn) | 10.6
68 | Cc1cc(Cl)ccc1NC(=S)N1CCC(C(N)=O)(N2CCCCC2)CC1 | -2.06
69 | O=C(Nc1ccc(S(=O)(=O)Nc2ncccn2)cc1)c1cc([N+](=O)[O-])ccc1Cl | 27.9

Row | Structure (SMILES) | hERG current change (%, negative = inhibition) at 10uM [%]
70 | COCCCNS(=O)(=O)c1cccc(S(=O)(=O)c2cccc(S(=O)(=O)NCCCOC)c2)c1 | 4.92
71 | Cn1c(SCC(=O)NCCc2ccccc2)nc2c([nH]c3ccccc32)c1=O | 26.4
72 | Cc1ccc(OCC(=O)N/N=C/c2cccc3cccnc23)cc1 | 8.18
73 | Cc1ccc(NS(=O)(=O)c2cc(C(=O)NCc3ccccn3)ccc2Cl)cc1C | -47
74 | COc1cccc(N2[C@@H](CC(C)=O)c3ccccc3S2(=O)=O)c1 | -2.64
75 | COc1cc(/C=N\NC(=O)c2nonc2N)c(OC)cc1Br | 18.5
76 | Cc1nn2c(NCCN(C)C)c3c(nc2c1-c1ccccc1)CCC3 | -26.7
77 | COc1cccc(NC(=O)c2ccc(C(=O)c3ccccc3)o2)c1 | -6.25
78 | CCCCNC(=O)CCc1nc2cccnc2n1Cc1ccc(OC)cc1 | -18.1
79 | C=CC(=O)NC(NC(=O)C=C)c1ccccc1F | 6.81
80 | COc1ccc(C(=O)O)cc1S(=O)(=O)N(C)CCc1cccnc1 | 9.95
81 | CC(C)(C)c1ccc(OCC(=O)NNC(=O)c2cccnc2)cc1 | -34.7
82 | CC1CN(Cc2nc3c(c(=O)n(C)c(=O)n3C)n2CCc2ccccc2)CC(C)O1 (stereo not drawn) | -16.6
83 | CCn1c(=O)cc(OCC(=O)NC(C)c2ccc3c(c2)OCCO3)c2ccccc21 (stereo not drawn) | -4.48
84 | CC(C)(C)C(=O)Nc1ccc(C(=O)OC2CCCCC2)cc1 | -12.2
85 | COC(=O)C1=C(c2ccc(F)cc2OCc2ccccc2)C[C@@H]2CC[C@H]1N2C | -52
86 | Nc1nc(-c2sc3nc4c(cc3c2N)CCCC4)nc(N2CCOCC2)n1 | 27.1
87 | CCOC(=O)Cn1cc(C#N)c(=O)[nH]c1=O | -17.8
88 | Cc1cc(N2CCN(C)CC2)nc2ccc(NC(=O)CCC(=O)N3CCN(c4ccc([N+](=O)[O-])cc4)CC3)cc12 | 17.9
89 | COC(=O)c1ccccc1S(=O)(=O)N1CCC(C(=O)OCC(=O)c2ccccc2OC)CC1 | -16.8
90 | NNC(=O)/C(=C\c1ccco1)NC(=O)c1ccco1 | -2.75

Reference: article PMC4336329 (PLoS ONE, 2015)
